Results are given in words; binding and its absence hold for the method and conditions named. Binding seen in cells or lysates may run through a third protein. Some binding calls cover weakened binding; strength is not graded here. Where a sequence is shown, tags or fusion partners need not be part of it.
T1: LET2-mCherry (Arabidopsis thaliana) (UniProt Q9FID9)
T1 sequence: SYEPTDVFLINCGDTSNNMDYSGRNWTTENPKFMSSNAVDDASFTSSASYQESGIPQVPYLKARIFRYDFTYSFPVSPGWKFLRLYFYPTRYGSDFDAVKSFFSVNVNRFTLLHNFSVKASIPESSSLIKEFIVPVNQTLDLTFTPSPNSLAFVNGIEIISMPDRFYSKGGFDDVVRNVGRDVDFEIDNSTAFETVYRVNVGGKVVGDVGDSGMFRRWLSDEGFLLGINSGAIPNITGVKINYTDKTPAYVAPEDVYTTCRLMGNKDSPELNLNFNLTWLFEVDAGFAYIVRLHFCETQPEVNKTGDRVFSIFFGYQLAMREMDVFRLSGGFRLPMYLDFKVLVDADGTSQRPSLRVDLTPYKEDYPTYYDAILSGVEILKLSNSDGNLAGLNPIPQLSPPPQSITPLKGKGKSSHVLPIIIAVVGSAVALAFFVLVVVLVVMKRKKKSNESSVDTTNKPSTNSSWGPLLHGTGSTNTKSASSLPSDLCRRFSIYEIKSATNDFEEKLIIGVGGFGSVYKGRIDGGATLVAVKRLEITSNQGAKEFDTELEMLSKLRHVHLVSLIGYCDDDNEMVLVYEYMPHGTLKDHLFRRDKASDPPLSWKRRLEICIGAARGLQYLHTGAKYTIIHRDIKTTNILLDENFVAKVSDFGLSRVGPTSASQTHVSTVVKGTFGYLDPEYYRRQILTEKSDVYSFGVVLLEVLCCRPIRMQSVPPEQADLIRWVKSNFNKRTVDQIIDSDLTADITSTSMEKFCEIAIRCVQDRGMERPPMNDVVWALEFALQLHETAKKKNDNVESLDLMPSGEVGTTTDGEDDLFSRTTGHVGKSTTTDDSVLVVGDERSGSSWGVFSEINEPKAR

T2: BIR2-mCherry (UniProt Q9LSI9)
T2 sequence: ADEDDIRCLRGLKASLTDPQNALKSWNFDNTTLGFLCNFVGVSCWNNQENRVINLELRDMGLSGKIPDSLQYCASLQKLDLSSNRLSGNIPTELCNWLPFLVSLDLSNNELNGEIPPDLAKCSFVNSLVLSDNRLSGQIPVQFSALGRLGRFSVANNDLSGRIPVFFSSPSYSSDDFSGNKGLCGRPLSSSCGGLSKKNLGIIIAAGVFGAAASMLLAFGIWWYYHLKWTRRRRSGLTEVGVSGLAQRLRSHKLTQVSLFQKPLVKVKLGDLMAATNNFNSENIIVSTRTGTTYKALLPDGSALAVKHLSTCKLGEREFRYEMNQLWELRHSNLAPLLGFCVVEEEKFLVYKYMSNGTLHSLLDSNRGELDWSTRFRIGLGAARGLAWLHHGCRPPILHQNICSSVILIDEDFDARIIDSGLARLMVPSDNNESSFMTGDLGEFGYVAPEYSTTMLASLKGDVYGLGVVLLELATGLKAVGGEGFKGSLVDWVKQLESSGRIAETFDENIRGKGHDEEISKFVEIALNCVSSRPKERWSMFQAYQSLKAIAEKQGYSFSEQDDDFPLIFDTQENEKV

T3: LET1-FLAG (C-terminal FLAG-tagged LET1) (Arabidopsis thaliana) (UniProt O22187)
T3 sequence: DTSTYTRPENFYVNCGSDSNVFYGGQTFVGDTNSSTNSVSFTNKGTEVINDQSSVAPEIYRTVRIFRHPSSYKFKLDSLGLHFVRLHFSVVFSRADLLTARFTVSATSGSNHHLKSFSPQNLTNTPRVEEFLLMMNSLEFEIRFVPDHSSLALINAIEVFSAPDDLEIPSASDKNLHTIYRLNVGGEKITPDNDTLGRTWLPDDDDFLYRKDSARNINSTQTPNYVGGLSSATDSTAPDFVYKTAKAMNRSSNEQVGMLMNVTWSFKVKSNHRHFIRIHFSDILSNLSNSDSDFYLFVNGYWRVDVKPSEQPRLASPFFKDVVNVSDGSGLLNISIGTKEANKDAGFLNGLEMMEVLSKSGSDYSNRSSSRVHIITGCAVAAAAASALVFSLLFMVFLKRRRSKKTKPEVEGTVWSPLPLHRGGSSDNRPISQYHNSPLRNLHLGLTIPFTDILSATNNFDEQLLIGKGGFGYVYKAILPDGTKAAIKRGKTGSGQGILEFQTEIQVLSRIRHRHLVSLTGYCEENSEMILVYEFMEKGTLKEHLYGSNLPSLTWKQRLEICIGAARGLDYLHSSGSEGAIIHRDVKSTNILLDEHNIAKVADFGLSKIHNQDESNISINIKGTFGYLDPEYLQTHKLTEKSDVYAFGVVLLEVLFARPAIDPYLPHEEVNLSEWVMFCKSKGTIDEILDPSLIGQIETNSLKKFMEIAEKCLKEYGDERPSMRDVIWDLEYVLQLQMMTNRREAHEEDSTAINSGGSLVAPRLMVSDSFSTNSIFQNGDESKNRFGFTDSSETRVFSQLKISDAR

T4: LET1^ECD-FLAG (extracellular malectin-like domains of LET1) (Arabidopsis thaliana) (UniProt O22187)
T4 sequence: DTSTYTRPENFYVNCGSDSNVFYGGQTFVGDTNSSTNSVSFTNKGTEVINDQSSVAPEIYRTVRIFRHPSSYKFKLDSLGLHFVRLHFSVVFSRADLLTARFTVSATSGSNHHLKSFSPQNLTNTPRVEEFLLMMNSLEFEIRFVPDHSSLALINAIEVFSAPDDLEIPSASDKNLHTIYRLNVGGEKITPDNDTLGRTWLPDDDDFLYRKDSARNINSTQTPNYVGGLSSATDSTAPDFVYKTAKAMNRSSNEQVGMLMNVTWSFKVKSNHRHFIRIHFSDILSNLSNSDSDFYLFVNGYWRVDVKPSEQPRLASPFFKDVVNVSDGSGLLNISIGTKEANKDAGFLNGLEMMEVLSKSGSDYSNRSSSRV

T5: LET2-FLAG (C-terminal FLAG-tagged LET2/MDS1) (Arabidopsis thaliana) (UniProt Q9FID9)
T5 sequence: T1 sequence

B1: LET1-GFP (receptor, UniProt O22187 29-834)
chain: T3 sequence
B2: HA-LLG1 (N-terminal HA-tagged LLG1) (protein, UniProt Q9FKT1 24-144)
chain: SFISDGVFESQSLVLGRNLLQTKKTCPVNFEFMNYTIITSKCKGPKYPPKECCGAFKDFACPYTDQLNDLSSDCATTMFSYINLYGKYPPGLFANQCKEGKEGLECPAGSQLPPETSAEVN

Tests used:
[1] = molecular target: T1, LET2-mCherry (Arabidopsis thaliana); assay: FRET or BRET; FRET-FLIM of GFP (donor) and mCherry (acceptor) fusions expressed in Arabidopsis protoplasts for 16 h; GFP fluorescence lifetime, n = 15 protoplasts
[2] = molecular target: T2, BIR2-mCherry; assay: as above
[3] = molecular target: T3, LET1-FLAG (C-terminal FLAG-tagged LET1) (Arabidopsis thaliana); assay: co-IP; tagged proteins co-expressed in Arabidopsis protoplasts; lysate in 100 mM NaCl, 10 mM HEPES pH 7.5, 0.5% Triton X-100; precipitated with α-FLAG affinity beads at 4 °C for 2 h; immunoblot with α-HA and α-FLAG
[4] = molecular target: T4, LET1^ECD-FLAG (extracellular malectin-like domains of LET1) (Arabidopsis thaliana); assay: as above
[5] = molecular target: T5, LET2-FLAG (C-terminal FLAG-tagged LET2/MDS1) (Arabidopsis thaliana); assay: as above

| Binder | binding [1] | binding [2] | binding [3] | binding [4] | binding [5] |
| --- | --- | --- | --- | --- | --- |
| B1 | binds | no binding |  |  |  |
| B2 |  |  | binds | binds | binds |

From article PMC7519094
